Measurements as given in PMC4336329 (PLoS ONE, 2015).
In all, about 310,000 compounds went through this assay and about 14,000 (4.5%) showed an effect of 50% or more. Effects have a minus sign here. The list shows a part of the results.

Target: human ether-à-go-go-related gene (hERG) potassium channel (human, UniProt Q12809)
Assay: primary screen, population patch clamp on CHO cells stably expressing hERG
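Further: peak tail current of the secondary pulse compared with the same well before compound.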

Sequence of human ether-à-go-go-related gene (hERG) potassium channel (Q12809 whole entry, looked up): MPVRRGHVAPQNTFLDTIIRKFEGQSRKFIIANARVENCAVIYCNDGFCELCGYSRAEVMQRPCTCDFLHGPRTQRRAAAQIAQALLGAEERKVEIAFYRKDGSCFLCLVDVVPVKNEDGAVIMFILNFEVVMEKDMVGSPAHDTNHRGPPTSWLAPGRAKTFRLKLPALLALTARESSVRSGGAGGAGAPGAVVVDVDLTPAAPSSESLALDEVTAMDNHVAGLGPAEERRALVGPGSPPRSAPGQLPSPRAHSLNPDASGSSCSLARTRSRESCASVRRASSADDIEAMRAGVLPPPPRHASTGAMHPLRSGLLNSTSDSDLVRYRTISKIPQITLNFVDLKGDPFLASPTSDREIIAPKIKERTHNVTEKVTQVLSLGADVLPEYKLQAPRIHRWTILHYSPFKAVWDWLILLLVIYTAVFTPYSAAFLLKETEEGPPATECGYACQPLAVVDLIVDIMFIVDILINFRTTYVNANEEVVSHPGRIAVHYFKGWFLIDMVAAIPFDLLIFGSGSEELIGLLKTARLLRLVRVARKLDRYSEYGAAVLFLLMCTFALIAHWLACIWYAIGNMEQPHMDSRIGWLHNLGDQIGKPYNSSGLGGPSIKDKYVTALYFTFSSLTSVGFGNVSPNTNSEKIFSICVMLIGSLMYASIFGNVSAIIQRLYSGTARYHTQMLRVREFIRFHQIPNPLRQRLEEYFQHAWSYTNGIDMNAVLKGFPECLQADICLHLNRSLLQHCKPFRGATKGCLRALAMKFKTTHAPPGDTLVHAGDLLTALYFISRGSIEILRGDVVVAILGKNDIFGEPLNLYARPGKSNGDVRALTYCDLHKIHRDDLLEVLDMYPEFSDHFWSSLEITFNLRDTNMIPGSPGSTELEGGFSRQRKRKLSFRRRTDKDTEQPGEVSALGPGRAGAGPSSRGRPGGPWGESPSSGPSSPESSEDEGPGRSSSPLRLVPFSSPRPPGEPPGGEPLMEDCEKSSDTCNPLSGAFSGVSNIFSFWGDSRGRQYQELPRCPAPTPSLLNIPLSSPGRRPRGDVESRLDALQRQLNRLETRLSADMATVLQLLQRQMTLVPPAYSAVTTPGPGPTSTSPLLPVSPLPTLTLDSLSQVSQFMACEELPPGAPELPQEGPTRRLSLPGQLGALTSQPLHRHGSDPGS

Structure (SMILES) | hERG current change (%, negative = inhibition) at 10uM [%]
N#CC(C#N)=Cc1ccc(NC(=O)c2ccc(Br)cc2)cc1 | 1.8
O=C(c1ccc(C23CC4CC(CC(C4)C2)C3)o1)N1CCOCC1 | -37.2
S=C(NCc1ccccc1)NCc1ccc(CNC(=S)NCc2ccccc2)cc1 | 9.48
Cc1ccnc(NS(=O)(=O)c2cc([N+](=O)[O-])ccc2C)c1 | 10.6
Cc1ccc(-c2nnc(OCC3CCCO3)c3ccccc23)cc1 (stereo not shown) | -65.2
Cc1nc2sc(C(c3cccs3)N3CCOCC3)c(O)n2n1 (stereo not shown) | -7.87
O=C1CCCc2c1cc(C(=O)Nc1ccc(Br)cn1)c(=O)n2-c1ccccc1 | -2.93
COc1cccc(NC(=O)CSCC(=O)O)c1 | 1.77
O=C(CCNS(=O)(=O)c1ccc(Cl)cc1)NCc1ccccn1 | -13.1
CC1(C)Cc2c(c(-c3ccccc3)nc(N3CCOCC3)c2C(N)=O)CO1 | -7.57
Cc1ccc(N/C(=N/S(=O)(=O)c2cccs2)c2ccccc2)c(C)c1 | 5.96
Cc1noc(C)c1S(=O)(=O)N1CCCC(C(=O)NCCc2ccccc2)C1 (stereo not shown) | 0.701
COc1ccc2cc(C3(C)NC(=O)N(CC(=O)Nc4c(C)n(C)n(-c5ccccc5)c4=O)C3=O)ccc2c1 (stereo not shown) | 4.2
COc1cccc(C(C(=O)NC(C)(C)C)N(CC(C)C)C(=O)CCC(=O)Nc2cc(C)on2)c1OC (stereo not shown) | 8.72
Nc1nc(=S)[nH]c2c1C1(CCCCC1)Cc1ccccc1-2 | 0.291
COc1ccc(C(c2c(O)nc[nH]c2=O)c2c(O)nc[nH]c2=O)cc1 | 22.2
COc1ccccc1N(C(=O)Cn1nnc(-c2ccc(C)o2)n1)C(C(=O)NC1CCCC1)c1ccncc1 (stereo not shown) | 19.9
CCN(CC)S(=O)(=O)c1cnccc1N1CCN(c2cccc(Cl)c2)CC1 | -8.04
CC(C)CC(N)c1cn([C@@H](CCC(=O)O)C(=O)N2CCNCC2)nn1.Cl (stereo partly shown) | 17.2
COc1cc(C(=O)NC(C)c2cnn(-c3ccccc3C)c2C)cc(OC)c1OC (stereo not shown) | -51
Cn1c(=O)c2c(nc(NC3CCCCC3)n2CC(O)COc2ccccc2)n(C)c1=O (stereo not shown) | 13
Cc1cccc(OCC(=O)NNC(=O)C2CCCCC2C(=O)O)c1 (stereo not shown) | -0.28

Structure (SMILES) | hERG current change (%, negative = inhibition) at 10uM [%]
COc1ccc(-c2cc(-c3n[nH]c(=S)n3-c3ccccc3Cl)[nH]n2)cc1 | 13.5
O=C(OCn1ncc(Cl)c(Cl)c1=O)c1ccc(F)cc1 | -3.74
COc1ccccc1C(=O)COC(=O)CNS(=O)(=O)c1ccc(NC(C)=O)cc1 | 15
COc1ccc(C=NCCC2(O)CC(C)N(C)CC2C)cc1 (stereo not shown) | 8.31
CN(C)CC(C)(C)CNS(=O)(=O)c1ccc(Cl)c(Cl)c1 | -6.25
S=c1[nH]nc(CCc2ccccc2)n1-c1ccc(Cl)cc1 | 9.95
NC(=O)CSCc1c(Cl)cccc1Cl | -1.28
COc1cccc(C2/C(=C(\O)c3ccc4c(c3)OCCO4)C(=O)C(=O)N2CCN(C)C)c1 (stereo not shown) | 5.98
COc1ccc2c(Cl)c(C(=O)NN3CCN(C)CC3)sc2c1 | 3.23
COc1ccc(OC)c(/C(C)=N\NC(=O)c2cc3cc(Cl)ccc3n2C)c1 | 19.9
COCCNC(=O)CN(Cc1ccc(Cl)cc1)S(C)(=O)=O | -4.31
CCOC(=O)c1cnn2c(C)cc(-c3ccccc3)nc12 | -10.4
CSc1ncc(CN2CCc3c([nH]c4ccccc34)C2c2cccc(C)n2)cn1 (stereo not shown) | -13.8
CC1CN(S(=O)(=O)c2csc(C(=O)Nc3ccccc3)c2)CC(C)O1 (stereo not shown) | 14.8
COC1=CC=C2[C@H]3Cc4ccc(OC)c5c4[C@@]2(CCN3C)[C@H]1O5.Cl | 10.3
CCN(CC)S(=O)(=O)c1cccc(C(=O)N[C@H](C(=O)NCc2ccc(Cl)cc2)C(C)C)c1 | -9.42
CC1CCN(CCC(=O)Nc2ccc3c(c2)CCC3)CC1 | -29.4
COc1cc(SC)ccc1C(=O)N1CCN(c2ccccc2OC)CC1 | -24.5
Cc1c(CCC(=O)NCCCN2CCCC2=O)c(=O)oc2cc(O)ccc12 | 13.5
Cc1ccc(-n2nc3c(=O)n(C(C)C(=O)NC4CC4)nc(C)c3c2C)cc1 (stereo not shown) | -2.58
COC(=O)c1cn(NC(=O)Cc2ccccc2Br)c(=O)c2ccccc12 | 18.1
CN1CCN(C(=O)COc2ccc(S(=O)(=O)NC3CCCCC3)cc2Cl)CC1 | 6.73

Structure (SMILES) | hERG current change (%, negative = inhibition) at 10uM [%]
COc1ccc2c(c1OC)CN(C)CCc1cc3c(cc1C(=O)C2)OCO3 | -81
CC(c1ccncn1)N(C)C(=O)c1ccc2oc(Cc3ccccc3)nc2c1 (stereo not shown) | -4.15
Cc1c(NC(=O)c2ccc(N(Cc3ccccc3)S(C)(=O)=O)cc2)c(=O)n(-c2ccccc2)n1C | 29.6
Cc1onc(-c2ccccc2)c1-c1nnc(-c2ccccc2C(F)(F)F)o1 | -0.898
CCn1cc(Cl)c(C(=O)NNC(=O)CCn2ccc([N+](=O)[O-])n2)n1 | 36.6
O=C(c1ccc(S(=O)(=O)N2CCCCC2)cc1)N1CCN(c2ccccc2F)CC1 | -16.6
COc1ccc(C(=O)Nc2cccc3c2C(=O)NC3=O)cc1S(=O)(=O)N1CCOCC1 | -6.84
COc1cc(C(=O)N2CCN(c3ncnc4sc(C)c(C)c34)CC2)cc(OC)c1OC | -47.2
COc1cc(CNc2nc3ccccc3[nH]2)cc(OC)c1OC.Cl | -8.99
CCCC(=O)NCc1cc(-c2nn(C)c(=O)c3ccccc23)ccc1OC | 7.01
COC(=O)/C(=C/c1ccco1)NC(=O)c1ccccc1 | -1.9
Cn1c(SCC(=O)NCc2ccc(F)cc2)nc2c([nH]c3ccccc32)c1=O | 8.05
C=CCn1c(SCC(=O)OCC)nc2cc(C(=O)NCc3ccco3)ccc2c1=O | -17.6
COc1ccc2nc(NC(=O)C34CC5CC(CC(NC(C)=O)(C5)C3)C4)sc2c1 | -11.1
COC(=O)c1ccc(-c2noc(CN(C)Cc3ccncc3C)n2)cc1 | 3.71
COc1cccc(C(=O)Nc2ccc(C3CC3(Cl)Cl)cc2)c1 (stereo not shown) | 4.37
CC(=O)N1c2c(cc(Br)cc2S(=O)(=O)N2CCN(c3ccccc3F)CC2)CC1C (stereo not shown) | 11.9
CCOc1ccc(NC(=O)C(C)Oc2ccccc2C(=O)Nc2ccc(C)c(Cl)c2)cc1 (stereo not shown) | 0.82
COc1ccc(C(=O)NCC(=O)OCc2cccc(Br)c2)cc1 | 6.87
CC(OC(=O)c1cc2sccc2n1C)C(=O)NCCc1ccccc1 (stereo not shown) | -20.6
CCOc1ccc2nc(COC(=O)c3ccco3)c(C(C)=O)[n+]([O-])c2c1 | 0.493
CC1CN(C(=O)CSc2nc(-c3ccc(F)cc3)cs2)CC(C)O1 (stereo not shown) | -4.53

Structure (SMILES) | hERG current change (%, negative = inhibition) at 10uM [%]
COc1ccc(-c2csc(NC(=O)COC(=O)c3ccco3)n2)cc1 | 3.04
Cc1ccc(S(=O)(=O)N2CCN(C(=O)CSc3nnc(C)c(=O)[nH]3)CC2)cc1 | 7.55
COc1ccc(NC(=O)/C(C#N)=C/c2ccc(-c3ccc(Cl)c(C(=O)O)c3)o2)cc1 | 25.4
CC(C)CCn1c(=O)[nH]c2ccccc21 | 4.02
CCC(C)(C)NC(=O)CN(C(=O)c1snc(C(N)=O)c1N)c1ccc(OC)c(OC)c1 | 4.07
CC(O)[C@H]1CNCCN1CCc1cc(C(F)(F)F)cc(C(F)(F)F)c1 (stereo partly shown) | -9.86
CCC12CN3CCN(CC(C3)/C1=N\NC(=O)c1ccc(C(C)(C)C)cc1)C2 | -22.9
O=C(Nc1ccccc1F)c1c[nH]c(=O)[nH]c1=O | 1.43
CC(C)c1nc(Cl)c(C#N)c2c1CSC(C)(C)C2 | 4.23
COc1ccc(C(=O)NNC(=O)CCC(=O)Nc2ccc(C)cc2C)cc1 | 11.7
CCCc1cc(=O)[nH]c(SCC(=O)Nc2c(C)cccc2C)n1 | 6.31
COc1ccc(C(C(=O)NC2CCCCC2)N(C(=O)c2ccccn2)c2cccnc2)cc1 (stereo not shown) | 22.4
O=C(CCc1nnc(-c2ccc3c(c2)OCO3)o1)N(Cc1ccncc1)CC1CCCO1 (stereo not shown) | -7.66
CCN(CC)CCCNC(=O)c1nn(-c2ccc(OC)cc2OC)c(=O)c2ccccc12 | -0.745
O=C1N=C(N2CCOCC2)S/C1=C/c1cccs1 | -5.52
Cc1ccccc1C1NC(=O)c2ccccc2O1 (stereo not shown) | 17.1
COP(=O)(OC)c1nc(-c2cccc3ccccc23)oc1N1CCOCC1 | 2.16
COc1ccc(N2CCN(Cc3nc4scc(-c5ccccc5)c4c(=O)[nH]3)CC2)cc1 | 7.98
Cc1ccc(Sc2nc(-c3ccccc3)nnc2C(F)(F)F)cc1 | 11.7
